{"source": "the supplement of paper PMC11417369", "note": "The other results are listed elsewhere or left out.", "data": [{"system": "PfHDP1 homeodomain (GST-tagged)", "test": "gcPBM binding intensity (ln(normalized median fluorescence intensity)); higher = stronger DNA binding", "outline": "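The highest Masliner-normalised natural-log median intensity across replicate spots of either probe orientation is reported as binding intensity. GST-tagged P. falciparum DNA-binding domains expressed in E. coli were applied for 1 h to an Agilent 4 × 180k array of primer-extended double-stranded 36-bp intergenic genomic probes plus negative controls, and bound protein was detected with Alexa488 anti-GST antibody and scanned at 488 nm.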", "values": [{"sequence": "TAAAATTTATAAACTACACACATATAAATAGTAATA [CACACA_site7708]", "gcPBM binding intensity (ln)": 6.42}, {"sequence": "TATATACATTGGTATACATGCATTCTCTTTCATACA [TGCATGCA_site734]", "gcPBM binding intensity (ln)": 6.57}, {"sequence": "TAAACACCCATATAAACACACATATAAACACCCATA [CACACA_site5382]", "gcPBM binding intensity (ln)": 6.92}, {"sequence": "TTTATTTATTTTTAACGTACGCACACATATAAATAT [XGTACX_site4042]", "gcPBM binding intensity (ln)": 7.14}, {"sequence": "TATATATATATATATACACACACACTAATAAAAAAA [CACACA_site8426]", "gcPBM binding intensity (ln)": 9.3}, {"sequence": "CTTAGATATAAAAATTGTACATACATATTTTTGACA [XGTACX_site2107]", "gcPBM binding intensity (ln)": 6.25}, {"sequence": "ATTTTTTAAATGAGGCGTACACAAAAATATAATTAC [XGTACX_site7087]", "gcPBM binding intensity (ln)": 7.14}, {"sequence": "TTTTTTTCGTAAAAAAAAATAATTATTAAATGAAGG [TGCATGCA_negctrl_site212]", "gcPBM binding intensity (ln)": 6.64}, {"sequence": "ACAGAAAAAAGACACACACACATAATATACATACAT [CACACA_site6991]", "gcPBM binding intensity (ln)": 6.85}, {"sequence": "TCATTCGAATAAATTGCACACATGACATCCGTTGTA [CACACA_site2587]", "gcPBM binding intensity (ln)": 9.23}, {"sequence": "ATATATATATTAATTACACACAAAAAAAAAAAAAAA [CACACA_site1165]", "gcPBM binding intensity (ln)": 7.49}, {"sequence": "AAAAAAAAAAAAAATATACACACTAATATATTTTTT [CACACA_site815]", "gcPBM binding intensity (ln)": 6.69}, {"sequence": "TATTAATAATATAATAGTACTTTCACTGTAAATTTA [XGTACX_site6419]", "gcPBM binding intensity (ln)": 6.05}, {"sequence": "TATATACAGATATATACACACATATTTATATTTTAT [CACACA_site7734]", "gcPBM binding intensity (ln)": 6.41}, {"sequence": "GTATAGAGAAAAAACTGTACTTTATATAAATATTTA [XGTACX_site3972]", "gcPBM binding intensity (ln)": 5.95}, {"sequence": "AAGAATATATAGGACACACATACAATAATAAATATA [CACACA_site4119]", "gcPBM binding intensity (ln)": 6.77}, {"sequence": "TATCCTACATTAACAAGTACAAAGAGATCCTACGTA [XGTACX_site4252]", "gcPBM binding intensity (ln)": 6.16}, {"sequence": "TTTCTCCATATTAAAGTGCATTAATAACAAAAATAA [GTGCAC_site9934]", "gcPBM binding intensity (ln)": 8.23}, {"sequence": "AACGCCACTTCAATGGCACACACCAATTATTTTTCA [CACACA_site1026]", "gcPBM binding intensity (ln)": 6.31}, {"sequence": "GCCATTAATTTATACACACACATTAAAATTTTTTAT [CACACA_site4575]", "gcPBM binding intensity (ln)": 7.61}, {"sequence": "ATATATAATAATATATGTACATAATATTTTTTTTTT [XGTACX_site1941]", "gcPBM binding intensity (ln)": 6.37}, {"sequence": "TAATGAAGATATATAACACACAAAAGTTATAAATAT [CACACA_site6678]", "gcPBM binding intensity (ln)": 6.31}, {"sequence": "GCTATAAATACAGACGCACACATATACATACATATA [CACACA_site3329]", "gcPBM binding intensity (ln)": 7.21}, {"sequence": "AAAAAAAAAAAAAAAAAATAATAAAAAATAAAAAAA [GTGCAC_negctrl_site341]", "gcPBM binding intensity (ln)": 6.46}]}]}
